# Where a structure was tested more than once in an assay, its records may differ in their call.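 Growth was measured after 48 h exposure to one concentration of compound in 96-well plates. Values under 10 count as active.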 Some entries of the source have several records that differ or are many. The other results are left out here. There may be further records. This drug was run again and again over the years, at the concentration stated with the values; one value stands for one run. Counts like (3×) stand for listed records that agree.
# Test system: SK-MEL-5 melanoma
# Experiment: NCI-60 one-dose screen, 48 h (100 = growth as untreated, 0 = no growth, -100 = all killed)
# Settings: 0.25 µM
compound,measurement,setting,value
COc1cccc2c1C(=O)c1c(O)c3c(c(O)c1C2=O)C[C@@](O)(C(=O)CO)C[C@@H]3OC1CC(N)C(O)C(C)O1 (stereo partly specified),growth,runs of 2008,"inactive: 35.1, 33.1, 42.6, 43.6, 37.2, 16.6, 24.9, 40.3, 42.5, 45.1, 39.6, 22.6, 26.1, 33.2, 24.2, 21.1, 44.6, 27.8, 38.5, 101, 23.6 (2×), 11.6, 13.7, 21.5, 20.2, 31, 34, 38.8, 40.5, 36.6, 29.2, 31.7 (2×), 33.4, 38.6, 28.9, 19.7% and active: 5.04, 9.18, 6.26, 0.758, -0.357, 6.01, -23, -36.2, -0.138, -21.7, 6.22, 7.92%"
same,growth,runs of 2009,"inactive: 34.8 (2×), 27.4, 27.5, 46.5, 14.1 (2×), 11.2, 17.9, 12.5 (2×), 11, 16.5, 17.7, 32.4 (2×), 35.6, 26.2, 40, 32.1 (2×), 29.4, 52.7, 41.4, 29.9, 23.3, 31.8, 35.1, 30.1, 11.1, 22.5, 14.6, 33.6, 25.4, 40.8, 28.4, 25.7 (2×), 23.8, 28.2, 19.6, 44.6, 22.2, 35.7, 37.6, 31.7, 21.5, 21.1, 47, 39.1, 11.9, 18, 26.8, 30.7, 26.3% and active: 5.72, 3.93, -5.98, -6.09, 9.42, 0.151, 5.68, -16.4, -0.282, 6.94, -20, 1.75, -7.47, -6.1, 8.02%"
same,growth,runs of 2010,"inactive: 40.6, 36.1, 41.1, 34.8, 27.6, 33.6, 43.3, 33.8, 53.3, 14.4, 11.6, 14.3, 16.7, 26.3, 19.9, 17.5, 22.5, 20.5, 28, 30.5, 18.8, 44.2, 51.8, 32.7, 30.2, 25.9, 37.2, 46.8, 42.1, 16.8, 30.6, 25.1, 17.2, 28.5, 28.8, 29.5, 51.5, 37.7 (2×), 30.7, 41.2, 40.8, 35.4, 50.8, 17, 13.5, 12.3, 18.6, 15.7% and active: -6.79, 9.99, -38.4, 8.39, 1.92%"
same,growth,runs of 2011,"inactive: 39.5 (2×), 35.6, 20.4, 42, 51.1, 43.1, 16.5, 25 (2×), 29.1, 47, 34.6, 14.7, 44.1, 49, 36.4, 28.5, 14.3 (2×), 35.2, 52.1, 50.1, 50.6, 46.3, 22.2, 30.6 (2×), 28.3, 17.5, 22, 29.2, 22.7, 19.8, 11.6, 26.6, 26.3, 25.7, 10.5, 25.8, 19.6, 15.8, 20.1, 21.5, 16.4, 29.9, 20.6, 41.2, 43.9, 36.5, 50, 40.4% and active: -20, -0.575, -5.22, -39.3, 5.09, 0.919, -7.81%"
same,growth,runs of 2012,"inactive: 23, 21.1, 24.3, 36.8, 45.6, 43.4, 51.6, 37.8, 57.1, 63.1, 38.3, 26.2, 17.7, 16.6, 11.2, 15.4, 37.6, 36.7, 46.8 (2×), 52.2, 42.8, 43.7, 40.7, 43, 56.6 (2×), 42.3, 41.4 (2×), 46.4, 37.1, 11.1, 52.5, 31.4, 35.1, 53.7, 47.6, 55.2, 61.1, 59, 49.6, 47.7, 59.3, 56.1, 65.1, 69.4, 70.9, 66.2, 60.2, 65.7, 72.1, 25.2, 27.1, 37.4, 25.9, 25.7, 41.7, 55.7, 48.7, 50.9, 42.1, 45.9, 50, 50.8% and active: 6.53, 8.84, -2.08, -18.7, 8.07, 8.19%"
same,growth,runs of 2013,"inactive: 58, 64.4, 45 (2×), 41, 40.1 (2×), 46.1 (2×), 25.7 (2×), 27, 30.4, 34.4, 40.7, 39.7, 44.2, 38, 45.3, 49.8 (2×), 53.3, 53, 38.4, 45.6, 44.8, 47.9, 48.5, 48.2, 55.4, 29.4, 58.6, 55.1, 48.8, 24.2, 30.2, 37, 38.5, 30.6, 41.7, 37.7, 34.7, 49, 49.4, 42.9, 39.8, 44, 51.1, 59.6, 59.9, 67.4, 69.4, 62.9, 60.3, 58.5, 68.2, 14.5, 21.1, 15.3, 14, 14.2, 42.5, 29.5, 25.3, 34.3, 46.3, 39.1% and active: 4.1%, -1.54%"
same,growth,runs of 2014,"active: 6.88, 3.54, 7.24, -18.9, -5.26% and inactive: 14.1 (2×), 17.6, 28.1, 28.3, 12.2, 30.8, 36, 29.7, 25.8, 43.5 (2×), 61.3, 53.7, 47.3, 32.5, 37.8, 27.4, 15.9 (2×), 10, 12.5, 22.2, 21.1, 18, 19.6, 17.4, 32.3, 27, 23.4, 45.7, 41.5, 25.1, 42.7, 41.7, 30.3, 24.4 (2×), 28.5, 23.9, 33.7, 43.4, 51.7, 28.2, 61.1, 43.7, 27.7, 12, 29.1, 15.5, 21, 25.4, 40.4, 29.3, 42.4, 40.8, 48.3, 35.5, 20, 32.2, 46.3, 41.4, 38, 61.4, 55.4, 53.1, 41.2%"
same,growth,runs of 2015,"inactive: 11.6, 21.5, 22.4, 16.3, 32.6, 24.9, 22, 34 (2×), 13.8, 42, 38.9 (2×), 28.3, 44.9, 57.5, 36.2 (2×), 12.6, 30.6, 14.5, 35.6, 47.3, 61.5, 44.8, 40.8 (2×), 41, 38.3, 16.8, 23.9, 24.3, 30.4, 35.1, 20.4, 32.2, 48.2, 17.6, 27.1, 27.7, 33, 41.1 (2×), 17.7, 31.8, 50.8, 26.2, 18, 26.6, 44.5, 28.1, 58.6, 57.6, 44.4, 49.3, 48, 37.1, 46.5, 48.1, 34.2, 42.2, 30.8, 37.6, 34.4, 25.5, 31.4, 39.5% and active: 2.37, -5.75, 3.56, -7.36, 3.43, 9.51, -10.4, 5.65, 6.74%"
same,growth,runs of 2016,"inactive: 27, 25.4, 13.8, 20.5, 41.5, 66.3, 34.8 (2×), 16.5, 23.6 (2×), 57.5, 58.7, 50.2, 49.6, 36.1 (2×), 49.4, 41.1, 55.9, 54 (2×), 45.3, 35, 50.4 (2×), 38.6, 44.5, 12.1, 14.6, 26.5, 23, 33.1, 32.8, 45.4, 46.1 (2×), 42.7, 55, 43.4, 46.4, 41.2 (2×), 48.8, 50.9, 50.7, 50.6, 65.6, 40.1 (2×), 36, 32.5, 34, 49, 52.1, 25.8, 30.2, 35.4 (2×), 36.5 (2×), 37.4, 39.6, 41.7, 46.7, 37.7, 30.4, 49.5, 52.2, 34.9, 35.9, 29.2, 33.3, 40.5, 55.3, 61% and active: 2.57, 7.17, -1.83, 4.75, 1.56, 2.05, 6.67, -0.405%"
same,growth,runs of 2017,"inactive: 16.9 (2×), 25.3, 20.7 (2×), 24.9 (2×), 21.5, 17.8, 27.4, 34.4, 29.5, 38, 18.5, 21.4 (2×), 24.2, 17, 34.3 (2×), 37.2, 24.8, 28.4, 20.8, 28.1, 29.3, 37, 36.4, 45.3, 50.7, 51, 32.5 (2×), 52.2, 54.4, 16.7, 13.1, 17.6 (2×), 21.8, 25.2, 19.3, 27.8, 30.5, 23.9, 20.2 (2×), 16.6, 17.4, 24.6 (2×), 26.1, 21, 33.7, 33.9, 28.9, 30.9, 31.7, 29.8, 13.3, 22.6, 32.7, 17.5, 22.9, 19.4, 23.3, 18.4, 17.7, 28, 19.6, 25.6, 18.6, 46.4, 47.7, 54.3, 13.7, 15.8, 14.3% and active: 1.75%, 7%, 6.9%"
same,growth,runs of 2018,"inactive: 31.4, 35.5, 22.8, 25.7, 33.8, 31.1, 23.9 (2×), 31.7, 19.8, 14.4, 31.3, 32.7, 26.9, 27.5, 21.1, 24.8, 18, 14.8, 17.8, 30, 21.5, 23.4, 25.9, 18.9, 22.6, 22.3, 29.4, 13.5, 27.1, 42.3, 36.8, 30.3, 28.8, 39.8, 37.6, 36.5, 39.6, 55, 50.2, 58, 52.5, 55.9, 59.2, 51.2, 50.3, 29.6, 27.6, 11.9% and active: 8.63%, -9.2%"

# Source: PubChem BioAssay (NCI)
